According to the supplement of paper PMC8183993:
“And” between values parts separate entries of the source, which are not always exact repeats. Identical values can stand only once. Counter-ions that a name gives are not always drawn. ± gives the standard deviation of the averaged measurements. Over roughly 3,200 compounds, “nuclei count (viability) relative to DMSO” has its median near 99; the lowest 2% begin near 16. Some of the results follow.

The compounds below were run on U2OS (assay: nuclei count (viability) relative to DMSO (% of DMSO); higher = more viable cells). Conditions: 10 µM; 24 h.
Protocol: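 Primary image-based screen in U2OS cells: compounds at 10 uM for 24 h, then a 1 h o-propargyl-puromycin (OPP) pulse, click labelling, and high-throughput microscopy. Mean cytoplasmic OPP intensity and nuclei count were normalised to DMSO wells within each plate (DMSO = 100) and averaged over triplicate plates.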

**Q.** How did the nuclei count turn out when CCN(CC)C(C)CN1c2ccccc2Sc2ccccc21 (stereo not given) [Ethopropazine hydrochloride] was run?
**A.** Its nuclei count is 94.3.

**Q.** CCCNC(=O)NS(=O)(=O)c1ccc(Cl)cc1 [Chlorpropamide] was tested. Which nuclei count did it give?
**A.** Its nuclei count is 106.

**Q.** For COc1ccc(-c2nc(N3CCOCC3)c3sc(CN(C)c4ncc(C(=O)NO)cn4)cc3n2)cn1, which nuclei count is on record?
**A.** Its nuclei count is 18.

**Q.** With Cc1cnc(Nc2ccc(OCCN3CCCC3)cc2)nc1Nc1cccc(S(=O)(=O)NC(C)(C)C)c1 as the compound, how does the nuclei count read?
**A.** Its nuclei count is 7.48 and 5.57.

**Q.** CO[C@H]1/C=C/O[C@@]2(C)Oc3c(C)c(O)c4c(O)c(c5c(nc6cc(C)ccn65)c4c3C2=O)NC(=O)/C(C)=C\C=C\[C@H](C)[C@H](O)[C@@H](C)[C@@H](O)[C@@H](C)[C@H](OC(C)=O)[C@@H]1C [Rifaximin (Xifaxan)] was tested. Which nuclei count did it give?
**A.** Its nuclei count is 102.

**Q.** For CO[C@H]1/C=C/O[C@@]2(C)Oc3c(C)c(O)c4c(O)c(c5c(nc6cc(C)ccn65)c4c3C2=O)NC(=O)/C(C)=C\C=C\[C@H](C)[C@H](O)[C@@H](C)[C@@H](O)[C@@H](C)[C@H](OC(C)=O)[C@@H]1C [Rifaximin], which nuclei count is on record?
**A.** The nuclei count was 91.4.

**Q.** For C[C@]12C=CC(=O)N[C@@H]1CC[C@@H]1[C@@H]2CC[C@]2(C)[C@@H](C(=O)Nc3cc(C(F)(F)F)ccc3C(F)(F)F)CC[C@@H]12 [Dutasteride], which nuclei count is on record?
**A.** The nuclei count was 108.

**Q.** For Clc1cccc(Cl)c1NC1=NCCN1 [Clonidine hydrochloride], which nuclei count is on record?
**A.** The nuclei count was 101 ± 7.6.

**Q.** How did the nuclei count turn out when CCN(CC)c1ccc(/C=N/NC(=O)c2ccc(O)cc2)cc1 was run?
**A.** The nuclei count was 89.4.

**Q.** Which nuclei count does the source give for Nc1nc2c(ncn2COC(CO)CO)c(=O)[nH]1 [Ganciclovir] here?
**A.** Its nuclei count is 122.

**Q.** For Cc1csc(-c2nnc(Nc3ccc(Oc4ncccc4-c4ccnc(N)n4)cc3)c3ccccc23)c1, which nuclei count is on record?
**A.** Its nuclei count is 48.1.

**Q.** CCCCCCCCCCCCCCCC(=O)OC[C@H](O)[C@H]1OC(=O)C(O)=C1O [Ascorbyl palmitate] was tested. Which nuclei count did it give?
**A.** The nuclei count was 111.

**Q.** With N#C/C(=C\c1ccc(O)c(O)c1)C(=O)NCCCCc1ccccc1 as the compound, how does the nuclei count read?
**A.** The nuclei count was 88.3.

**Q.** For CC=CC(=O)N(CC)c1ccccc1C [Crotamiton], which nuclei count is on record?
**A.** The nuclei count was 97.6.

**Q.** With CC1=C(C)C(=O)C(C(CCCCCC(=O)O)c2ccccc2)=C(C)C1=O (stereo not given) [Seratrodast] as the compound, how does the nuclei count read?
**A.** The nuclei count was 94.6.

**Q.** CNCCc1ccccn1 [Betahistine mesylate] was tested. Which nuclei count did it give?
**A.** Its nuclei count is 115.

**Q.** For Cc1nc2c([nH]1)-c1ccccc1N(C(=O)c1ccc(NC(=O)c3ccccc3-c3ccccc3)cc1)CC2 [Conivaptan HCl (Vaprisol)], which nuclei count is on record?
**A.** The nuclei count was 101.

**Q.** For c1ccc2c(CCNc3ccc(Nc4ccncc4)cc3)c[nH]c2c1, which nuclei count is on record?
**A.** The nuclei count was 41.2.

**Q.** For CC(C)CCNC(=O)[C@H](CC(C)C)NC(=O)[C@H]1O[C@@H]1C(=O)O, which nuclei count is on record?
**A.** The nuclei count was 108.

**Q.** With NCCCCCC(=O)O [Aminocaproic acid] as the compound, how does the nuclei count read?
**A.** Its nuclei count is 88.

**Q.** Which nuclei count does the source give for CN(C)C(=N)NC(=N)N [Metformin hydrochloride] here?
**A.** Its nuclei count is 103.

**Q.** COc1c(C)cnc(Cn2cnc3c(Cl)nc(N)nc32)c1C was tested. Which nuclei count did it give?
**A.** Its nuclei count is 49.7.

**Q.** For COc1ccc2c(Oc3ccc(NC(=O)c4c(C)n(CC(C)(C)O)n(-c5ccccc5)c4=O)nc3)ccnc2c1, which nuclei count is on record?
**A.** The nuclei count was 94.2 ± 11.

**Q.** Nc1nccc(Oc2ccc(NC(=O)c3c[nH]cc(-c4ccc(F)cc4)c3=O)cc2F)c1Cl was tested. Which nuclei count did it give?
**A.** Its nuclei count is 90.3 ± 8.4.

**Q.** CCN(CC)C(=O)c1ccc(O)c(OC)c1 [Ethamivan] was tested. Which nuclei count did it give?
**A.** Its nuclei count is 108.

**Q.** Which nuclei count does the source give for Cc1noc(NS(=O)(=O)c2cccc3c(N(C)C)cccc23)c1C here?
**A.** The nuclei count was 102.

**Q.** How did the nuclei count turn out when C[C@H]1[C@H](C)CC[C@]2(C(=O)O)CC[C@]3(C)C(=CC[C@@H]4[C@@]5(C)CC[C@H](O)C(C)(C)[C@@H]5CC[C@]43C)[C@H]12 [Ursolic acid (Malol)] was run?
**A.** The nuclei count was 80.6.

**Q.** Which nuclei count does the source give for NC(=O)Nc1cc(-c2cccc(F)c2)sc1C(=O)N[C@H]1CCCNC1 here?
**A.** Its nuclei count is 7.62.

**Q.** O=C(c1ccc(F)cc1)C1CCN(CCn2c(=O)[nH]c3ccccc3c2=O)CC1 [Ketanserin tartrate hydrate] was tested. Which nuclei count did it give?
**A.** The nuclei count was 102.

**Q.** For O=C(c1ccc(F)cc1)C1CCN(CCn2c(=O)[nH]c3ccccc3c2=O)CC1 [Ketanserin tartrate], which nuclei count is on record?
**A.** The nuclei count was 109.

**Q.** For Cc1cc2nc3c(=O)[nH]c(=O)nc-3n(C[C@H](O)[C@H](O)[C@H](O)CO)c2cc1C [Riboflavin (Vitamin B2)], which nuclei count is on record?
**A.** Its nuclei count is 112.

**Q.** How did the nuclei count turn out when CCCOc1ccc2[nH]c(NC(=O)OC)nc2c1 [Oxibendazol] was run?
**A.** The nuclei count was 25.9.

**Q.** Which nuclei count does the source give for CCCOc1ccc2[nH]c(NC(=O)OC)nc2c1 [Oxibendazole] here?
**A.** Its nuclei count is 35.5.

**Q.** For O=C1NC(=O)c2cc(Nc3ccccc3)c(Nc3ccccc3)cc21, which nuclei count is on record?
**A.** Its nuclei count is 96.2.

**Q.** How did the nuclei count turn out when CC(=O)O[C@@H]1C[C@H]2C(C)(C)C(=O)C=C[C@]2(C)[C@H]2CC[C@@]3(C)[C@H](c4ccoc4)OC(=O)[C@H]4O[C@]43[C@@]21C [Gedunin] was run?
**A.** Its nuclei count is 85.6.

**Q.** How did the nuclei count turn out when O=C(O)CCc1ccc(NCc2cccc(Oc3ccccc3)c2)cc1 was run?
**A.** The nuclei count was 90.2.

**Q.** How did the nuclei count turn out when Clc1ccc2c(c1)CCc1cccnc1C2=C1CCNCC1 [Desloratadine] was run?
**A.** The nuclei count was 95.3.

**Q.** Which nuclei count does the source give for O=C1NCC2(CCN(CCc3ccccc3)CC2)O1 [Fenspiride hydrochloride] here?
**A.** The nuclei count was 89.3.

**Q.** For CCS(=O)(=O)N1CC(CC#N)(n2cc(-c3ncnc4[nH]ccc34)cn2)C1, which nuclei count is on record?
**A.** The nuclei count was 99.7.

**Q.** How did the nuclei count turn out when CN(CCCN1c2ccccc2CCc2ccccc21)CC(=O)c1ccc(Cl)cc1 [Lofepramine] was run?
**A.** Its nuclei count is 107.

**Q.** For CN(C)CCOC(c1ccccc1)c1ccccc1.Cn1c(=O)c2[nH]c(Cl)nc2n(C)c1=O [Dimenhydrinate], which nuclei count is on record?
**A.** The nuclei count was 108.

**Q.** How did the nuclei count turn out when CC(=O)OCCN1C(=O)c2c(C)nc3ccc(S(=O)(=O)N4CCOCC4)cc3c2C1=O [Ivachtin] was run?
**A.** Its nuclei count is 110.

**Q.** How did the nuclei count turn out when CCOc1nc2cccc(C(=O)O)c2n1Cc1ccc(-c2ccccc2-c2nnn[nH]2)cc1 [Candesartan (Atacand)] was run?
**A.** Its nuclei count is 107.

**Q.** With CCOc1nc2cccc(C(=O)O)c2n1Cc1ccc(-c2ccccc2-c2nnn[nH]2)cc1 [Candesartan] as the compound, how does the nuclei count read?
**A.** Its nuclei count is 102.

**Q.** How did the nuclei count turn out when O=c1[nH]cnc2nc[nH]c12 [Hypoxanthine] was run?
**A.** The nuclei count was 86.9.

**Q.** With C=CC(=O)Nc1cccc(Oc2nc(Nc3ccc(N4CCN(C)CC4)cc3)ncc2Cl)c1 as the compound, how does the nuclei count read?
**A.** The nuclei count was 6.24.

**Q.** With O=C[C@@H]1CCCN1C(=O)[C@@H]1CCCN1C(=O)OCc1ccccc1 [Z-Prolyl-prolinal] as the compound, how does the nuclei count read?
**A.** Its nuclei count is 95.7.

**Q.** Which nuclei count does the source give for C[C@@](Cc1ccc(O)c(O)c1)(NN)C(=O)O [Carbidopa] here?
**A.** Its nuclei count is 90.5.

**Q.** Which nuclei count does the source give for CC1OC2(CS1)CN1CCC2CC1 (stereo not given) [Cevimeline hydrochloride] here?
**A.** Its nuclei count is 101.

**Q.** How did the nuclei count turn out when NC[C@@H]1O[C@H](C23CC4CC(CC(C4)C2)C3)Cc2c1ccc(O)c2O was run?
**A.** The nuclei count was 84.2.
